Test results as given in US20050187204A1, “Medicinal composition for lowering blood lipid level” (SANKYO COMPANY, LIMITED, priority 2002, published 2005).
Entries with a single value are a further part of the results.

Test: Evaluation studies of blood lipid levels in Beagle dogs (serum total cholesterol and LDL after 11 days of oral dosing)
Format: in vivo, Male Beagle dogs
Details: Table 1, relative value, pre-treatment average (2 weeks and 1 week before) = 100, oral capsule once daily, mean of 5 dogs, mg/kg: ursodeoxycholic acid 100, simvastatin 1, atorvastatin calcium 2

## CC(C)c1c(C(=O)Nc2ccccc2)c(-c2ccccc2)c(-c2ccc(F)cc2)n1CC[C@H](O)C[C@@H](O)CC(=O)O [Atorvastatin calcium, (3R,5S)-7-[2-(4-fluorophenyl)-5-(1-methylethyl)-3-phenyl-4-phenylaminocarbonyl-1H-pyrrol-1-yl]-3,5-dihydroxyheptanoic acid]
4 days after treatment
  Change in serum lipid level (total cholesterol or LDL): 90.2%
8 days after treatment
  Change in serum lipid level (total cholesterol or LDL): 94.1%
12 days after treatment
  Change in serum lipid level (total cholesterol or LDL): 91.7%

## CCC(C)(C)C(=O)O[C@H]1C[C@@H](C)C=C2C=C[C@H](C)[C@H](CC[C@@H]3C[C@@H](O)CC(=O)O3)[C@H]21 [Simvastatin, (+)-(1S,3R,7S,8S,8aR)-1,2,3,7,8,8a-hexahydro-3,7-dimethyl-8-[2-[(2R,4R)-tetrahydro-4-hydroxy-6-oxo-2H-pyran-2-yl]ethyl]-1-naphthyl 2,2-dimethylbutyrate]
4 days after treatment
  Change in serum lipid level (total cholesterol or LDL): 94.8%
8 days after treatment
  Change in serum lipid level (total cholesterol or LDL): 94.1%
12 days after treatment
  Change in serum lipid level (total cholesterol or LDL): 92.4%

## C[C@H](CCC(=O)O)[C@H]1CC[C@H]2[C@@H]3[C@@H](O)C[C@@H]4C[C@H](O)CC[C@]4(C)[C@H]3CC[C@]12C [Ursodeoxycholic acid, ursodeoxycholic acid]
4 days after treatment
  Change in serum lipid level (total cholesterol or LDL): 100.3%
8 days after treatment
  Change in serum lipid level (total cholesterol or LDL): 99.4%
12 days after treatment
  Change in serum lipid level (total cholesterol or LDL): 95.4%
